# In the supplement of paper PMC8728848:
# Some of the results follow.
# How the values were obtained:
# Experiment in all cases: glycan array binding signal (z-score within array); higher = stronger binding
# Conditions in all cases: glycan notation: IUPAC condensed, linker removed
# [1] = target: GalNAc(b1-4)GlcNAc(b1-2)Man
# Outline: (§1)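 Glycan array binding is given as a within-array Z-score, which can be read as non-binding when negative. The arrays, 3228 of them, came from the Consortium for Functional Glycomics database and were retained only where the protein sequence was available. Z-scores were averaged across arrays of the same protein sequence at different concentrations or buffers and across linkers.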
# [2] = target: GalNAc(b1-4)GlcNAc(b1-2)Man(a1-3)[GalNAc(b1-4)GlcNAc(b1-2)Man(a1-6)]Man(b1-4)GlcNAc(b1-4)GlcNAc
# Outline: as §1
# [3] = target: GalNAc(b1-4)GlcNAc(b1-3)GalNAc(b1-4)GlcNAc
# Outline: as §1
# [4] = target: GalNAc(b1-4)GlcNAc6S
# Outline: as §1
# [5] = target: GalNAc(b1-6)GalNAc
# Outline: as §1
# [6] = target: GalNAc3S(b1-4)GlcNAc
# Outline: as §1
# [7] = target: GalNAc3S(b1-4)GlcNAc3S
# Outline: as §1
# [8] = target: GalNAc3S(b1-4)[Fuc(a1-3)]GlcNAc
# Outline: as §1
# [9] = target: GalNAc4S6S(b1-4)GlcNAc
# Outline: as §1
# [10] = target: GalNAc6S(b1-4)GlcNAc
# Outline: as §1
# [11] = target: Glc(a1-4)Glc
# Outline: as §1
# [12] = target: Glc(a1-4)Glc(a1-4)Glc(a1-4)Glc
# Outline: as §1
# [13] = target: Glc(a1-6)Glc(a1-6)Glc
# Outline: as §1
# [14] = target: Glc(a1-6)Glc(a1-6)Glc(a1-6)Glc
# Outline: as §1
# [15] = target: Glc(b1-4)Glc
# Outline: as §1
# [16] = target: Glc(b1-6)Glc
# Outline: as §1
# [17] = target: GlcA(b1-3)Gal
# Outline: as §1
# [18] = target: GlcA(b1-3)GlcNAc
# Outline: as §1
# [19] = target: GlcA(b1-6)Gal
# Outline: as §1
# [20] = target: GlcA3S(b1-3)Gal(b1-4)GlcNAc(b1-2)Man
# Outline: as §1
# [21] = target: GlcA3S(b1-3)Gal(b1-4)GlcNAc(b1-3)Gal(b1-4)Glc
# Outline: as §1
# [22] = target: GlcNAc(a1-3)Gal(b1-4)GlcNAc
# Outline: as §1
# [23] = target: GlcNAc(a1-4)Gal(b1-3)GlcNAc
# Outline: as §1
# [24] = target: GlcNAc(a1-4)Gal(b1-4)GalNAc
# Outline: as §1
# [25] = target: GlcNAc(a1-4)Gal(b1-4)GlcNAc
# Outline: as §1
# [26] = target: GlcNAc(a1-4)Gal(b1-4)GlcNAc(b1-3)Gal(b1-4)Glc
# Outline: as §1
# [27] = target: GlcNAc(a1-4)Gal(b1-4)GlcNAc(b1-3)Gal(b1-4)GlcNAc
# Outline: as §1
# [28] = target: GlcNAc(a1-4)Gal(b1-4)GlcNAc(b1-3)Gal(b1-4)GlcNAc(b1-3)Gal(b1-4)GlcNAc
# Outline: as §1
# [29] = target: GlcNAc(a1-4)Gal(b1-4)GlcNAc(b1-3)Gal(b1-4)[Fuc(a1-3)]GlcNAc(b1-3)Gal(b1-4)[Fuc(a1-3)]GlcNAc
# Outline: as §1
# [30] = target: GlcNAc(a1-6)Gal(b1-4)GlcNAc
# Outline: as §1
# [31] = target: GlcNAc(b1-2)Gal(b1-3)GalNAc
# Outline: as §1
# [32] = target: GlcNAc(b1-2)Man(a1-3)[GlcNAc(b1-2)Man(a1-6)]Man(b1-4)GlcNAc(b1-4)GlcNAc
# Outline: as §1
# [33] = target: GlcNAc(b1-2)Man(a1-3)[GlcNAc(b1-2)Man(a1-6)]Man(b1-4)GlcNAc(b1-4)[Fuc(a1-6)]GlcNAc
# Outline: as §1
# [34] = target: GlcNAc(b1-2)Man(a1-3)[GlcNAc(b1-4)][GlcNAc(b1-2)Man(a1-6)]Man(b1-4)GlcNAc(b1-4)GlcNAc
# Outline: as §1
# [35] = target: GlcNAc(b1-2)Man(a1-3)[GlcNAc(b1-4)][GlcNAc(b1-2)Man(a1-6)]Man(b1-4)GlcNAc(b1-4)[Fuc(a1-6)]GlcNAc
# Outline: as §1
# [36] = target: GlcNAc(b1-2)[GlcNAc(b1-4)]Man(a1-3)[GlcNAc(b1-2)Man(a1-6)]Man(b1-4)GlcNAc(b1-4)GlcNAc
# Outline: as §1
# [37] = target: GlcNAc(b1-2)[GlcNAc(b1-4)]Man(a1-3)[GlcNAc(b1-4)][GlcNAc(b1-2)Man(a1-6)]Man(b1-4)GlcNAc(b1-4)GlcNAc
# Outline: as §1
binder,measurement,setting,value
PX14343A-bvu-539-29-539 (Bacteroides vulgatus) (protein) DSLTESSSNTFWQTPDDALMALASCYDALQSNQLYNSDQYSLGPLYMDCISDNGGHFNWSGWMEGYDMAMGIHTPSSSIIGSYWKDCYEVISRCNVLIANIDRVDMDASQKAIYQAEAKTIRALMYINLTMTYQDVPFLTAPLTIDEAECEKTDRAAIVAHVMTDLQDAAEVLPQNASSRGHITKGAALSLLGRVALYNEKWDDAIAAYKQVQGLGYSLDPSYAKLFTQSGETSPEIIFAVRYEGPGMSEGAAFNAHWNTPLEAMNGTIDLADAYYCKDGKPTTDTKIAELNGGGGLDVSKPNPAHFENRDPRLYSTLFVPGMLWNGKGGIDTSASNPYANVYGGAAASLSTVYVYKYFDPTDTSNSWDNGQDFYVVRYAEVLLSLAEAMVQKGGYVYSDVTALVNEVRQRADVNMPTVEEVEGTSLSKDELLEVIKHERRVELAFEGLRLFDLYRWKELDKAVANIENERTMYGLAYEARKFNGERDYVWPLPTAELDTNKKLVQHDLWK,glycan array binding signal (z-score),[1],-0.367
same,glycan array binding signal (z-score),[2],-0.084
same,glycan array binding signal (z-score),[3],0.044
same,glycan array binding signal (z-score),[4],-0.311
same,glycan array binding signal (z-score),[5],-0.292
same,glycan array binding signal (z-score),[6],-0.514
same,glycan array binding signal (z-score),[7],-0.023
same,glycan array binding signal (z-score),[8],-0.399
same,glycan array binding signal (z-score),[9],-0.297
same,glycan array binding signal (z-score),[10],-0.312
same,glycan array binding signal (z-score),[11],-0.182
same,glycan array binding signal (z-score),[12],0.065
same,glycan array binding signal (z-score),[13],-0.375
same,glycan array binding signal (z-score),[14],-0.337
same,glycan array binding signal (z-score),[15],-0.377
same,glycan array binding signal (z-score),[16],-0.302
same,glycan array binding signal (z-score),[17],-0.448
same,glycan array binding signal (z-score),[18],-0.241
same,glycan array binding signal (z-score),[19],-0.375
same,glycan array binding signal (z-score),[20],-0.318
same,glycan array binding signal (z-score),[21],-0.242
same,glycan array binding signal (z-score),[22],-0.371
same,glycan array binding signal (z-score),[23],-0.426
same,glycan array binding signal (z-score),[24],-0.259
same,glycan array binding signal (z-score),[25],-0.419
same,glycan array binding signal (z-score),[26],-0.195
same,glycan array binding signal (z-score),[27],-0.254
same,glycan array binding signal (z-score),[28],-0.067
same,glycan array binding signal (z-score),[29],-0.099
same,glycan array binding signal (z-score),[30],-0.284
same,glycan array binding signal (z-score),[31],-0.404
same,glycan array binding signal (z-score),[32],-0.099
same,glycan array binding signal (z-score),[33],-0.074
same,glycan array binding signal (z-score),[34],-0.3
same,glycan array binding signal (z-score),[35],-0.202
same,glycan array binding signal (z-score),[36],-0.16
same,glycan array binding signal (z-score),[37],-0.213
